Experimental data as given in the BET-seq Pho4 binding data (Le et al. 2018).
The other results are listed elsewhere or left out. These are noisy estimates, calculated here from bound and input reads.

biological target: T1, Pho4 (S. cerevisiae) (UniProt P07270); assay: relative binding free energy (BET-seq); higher = weaker binding; details: reference: library average
T1 sequence: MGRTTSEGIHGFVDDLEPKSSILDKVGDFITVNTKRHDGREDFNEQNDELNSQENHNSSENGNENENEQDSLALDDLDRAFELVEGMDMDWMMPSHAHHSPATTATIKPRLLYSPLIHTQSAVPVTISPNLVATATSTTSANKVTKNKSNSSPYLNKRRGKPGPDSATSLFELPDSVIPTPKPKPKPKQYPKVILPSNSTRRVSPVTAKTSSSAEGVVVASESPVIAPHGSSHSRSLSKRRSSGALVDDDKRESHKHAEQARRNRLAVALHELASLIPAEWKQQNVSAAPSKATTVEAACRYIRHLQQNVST

Sequence | relative binding free energy [kJ/mol]
TTGGGCACGTGAGTCC | 0.669
CAGTTCACGTGGGATG | 0.711
TTAACCACGTGATGGG | 0.335
AGTGGCACGTGGCGTG | -0.586
GGCTTCACGTGGGTAG | 0.418
GGTAGCACGTGGTATG | -0.628
CGGTGCACGTGTGAGC | 0.753
CTAGGCACGTGATTTT | -0.335
GGGACCACGTGGGTAG | -0.711
AACGGCACGTGGTAGG | -1.13
GGGCGCACGTGAATGG | 0.669
ATCGGCACGTGGCGTT | -0.795
CAGGTCACGTGGGGCT | -0.0418
TTTCACACGTGTGTGT | -0.209
CTGGGCACGTGTAGGG | -0.167
TTTATCACGTGCGTAG | 0.753
TGTAACACGTGAAGGA | 1.55
TGTAACACGTGTTTAG | 0.0418
GTTGTCACGTGATGCT | 0.753
CGGAACACGTGGTTGT | -0.293
TGGGGCACGTGTGGCC | -0.0418
ATGGGCACGTGGATTG | -0.0418
TCTTACACGTGATATG | 0.879

Sequence | relative binding free energy [kJ/mol]
TTGTTCACGTGTAATC | 1.34
TGGTCCACGTGGGTAT | -0.46
ATTCACACGTGTTGTT | -0.46
GGTATCACGTGGTTGT | 1.21
TTTGTCACGTGTTTAT | 0.418
TTTTGCACGTGAGGAC | 1
GCATGCACGTGATGGG | 0.879
GGCTGCACGTGGTATA | -0.335
TATGTCACGTGGCCTG | -0.126
TGGGCCACGTGAGGCG | 0.628
GAATTCACGTGTTTGC | 1.38
ATTACCACGTGGTATG | -0.711
GGGGACACGTGGCGTA | -0.251
TGATTCACGTGGCTAG | 0.962
TTAGTCACGTGTATGT | 0.502
TGAGGCACGTGTAGTG | 0
TCATGCACGTGAAGTT | 1.09
CTAGTCACGTGAGTGA | 1.42
CGTGGCACGTGCATGT | 0.126
TTGTTCACGTGTCTAT | 1.21
TTAATCACGTGGGAGA | -0.502
TTACGCACGTGTATGT | -0.669
AGTAGCACGTGGAGTG | -0.669

Sequence | relative binding free energy [kJ/mol]
ATATGCACGTGGCTGT | -0.669
GGTTGCACGTGGAGGT | 0.628
GGGGCCACGTGCGATT | -0.0418
AGGCGCACGTGATGGC | 0.167
GTGTGCACGTGTTGCG | 0.711
GTGGGCACGTGGGACC | -0.586
GCGGGCACGTGGTGAT | -0.879
GTTATCACGTGTGACT | 0.879
TTCAGCACGTGTAAGG | -0.0837
GGTCCCACGTGGGGCG | -0.502
GTGGCCACGTGACGGA | 0.837
AGGGACACGTGTCTGG | 0.0418
ACAGTCACGTGGGTGG | -0.209
GGGGACACGTGCAGTG | -0.335
TAGCTCACGTGTGGTA | 0.879
TCAGGCACGTGTGTGG | -0.126
TGCTACACGTGAATGG | 2.01
ATGTTCACGTGTAGAA | 0.126
GGTTGCACGTGGCATG | -0.711
TATTGCACGTGTAAGA | 0
TGGTACACGTGGGGAA | 0.251
ACTTGCACGTGTGTAG | -0.0837
GGGGCCACGTGCGGGG | -1.09

Sequence | relative binding free energy [kJ/mol]
TGGTTCACGTGTGGGG | 1.38
TATCTCACGTGGTTAT | 1.21
TTGAACACGTGTAGCG | 1.05
ATCTACACGTGAGTTG | 0.92
TGCAGCACGTGGGGGA | -1.09
TTATCCACGTGGTTGT | -0.251
TGGTTCACGTGTGAGA | 1.88
GGCGTCACGTGAAATT | 1.92
GAGTGCACGTGCATTG | 0.251
CCTTTCACGTGTTTGG | 1
GCAGGCACGTGTTGTA | 0.0418
AGGGTCACGTGACTCG | 1.42
GGTCTCACGTGGTGCA | 0.711
TGGGCCACGTGAGGGT | 0.544
TATGGCACGTGTGTCA | -0.209
AGGGTCACGTGTTGCT | 0.711
TGCATCACGTGAGGGA | 1.34
CGGTTCACGTGGTGTG | 0.92
TTTATCACGTGGACAG | 0.293
TATGTCACGTGGATCG | -0.0837
GTATTCACGTGAAGCG | 1.84
CAGGGCACGTGTTTTA | -0.502
TCGTACACGTGGTTGG | -0.377

Sequence | relative binding free energy [kJ/mol]
ATGAACACGTGTGTGG | 0.335
TCTAGCACGTGGTTTG | -0.628
TTTAACACGTGTTTGA | -0.167
GTGTGCACGTGTGCAA | 0
TGCGTCACGTGCAGGG | -0.753
GGTTGCACGTGCGGAT | -0.126
ATTATCACGTGATTAT | 0.335
GGCGCCACGTGGGGCG | -0.795
CAATGCACGTGATAGG | 0.586
TTGGGCACGTGAGCCT | 0.962
CGTTTCACGTGAGGCG | 1.09
TCTGACACGTGAGGGT | 1.05
TATTGCACGTGTGAGA | 0.377
TGTACCACGTGAGGGA | 0.46
GGAGACACGTGATGTG | 0.795
ATTTGCACGTGCGTCG | -0.586
AGATACACGTGTGAGG | -0.209
GGCGACACGTGGATTG | 0.753
AAGGACACGTGAGTTG | 1.05
TGGTCCACGTGGGACG | 0.251
TAGGTCACGTGAAGGG | 1.34
ATAGGCACGTGTTTCG | -0.544
GCGAGCACGTGAAGGG | 0.962
